# The source gives no read counts; variants with many changes may rest on few reads.
# B1: OR4K15 (parent)
# chain: GUUAACGGUCAUAGGCCAUGGAAACUAGGAGCACCAUUUCGCUGCCAGUGAAGAAAUGAACAAAGAAAAUCUGGGCCAGGCAGGCAUCAAAAGAAAUAGUCUUGCGCUCAACCAGAAAGUCUGUAAUCAUUUUAAGGGUA
# Variants of: B1
# Assay: self-cleavage, relative activity (ratio to wild type); higher = more cleavage; in vitro, sequencing; the parent is a self-cleaving ribozyme
row,Variant,self-cleavage
1,U57A A69G A118G,0.52
2,U57A A82G U108C C128U,0.02
3,U57A A86C A111G U122C,0
4,U57A A90G U100C,2.3
5,U57A A92G A111G,0.02
6,U57A A98G A117G,0.38
7,U57A U70C A96U A117G,1.08
8,U57A U70C U72A U124C U139C,0.09
9,U57A U72C A82U,0.24
10,U57A U87A A118G U122C,0.58
11,U57A U87C U102C,2.69
12,U57A U132C G137A,1.15
13,U57C A59G A60G A89G A91G,1.17
14,U57C A62G A66U A69U A89G,0.51
15,U57C A64G U108C U130C,0.02
16,U57C A66G A94U,1.28
17,U57C A67G U100C U103C U108C A114U C128A,0.01
18,U57C A69G A86G A129U,0.56
19,U57C A78G A91G,0.17
20,U57C A78G A94G,0.39
21,U57C A78G U87C,0.15
22,U57C A78G U100C,0.38
23,U57C A78U U108A U127C,0.01
24,U57C A82G A91G U100A U127C,0.04

row,Variant,self-cleavage
1,U57C A82G A126G U130C,0.06
2,U57C A82G C101A A118G U122C,0.02
3,U57C A86U U124A,1.27
4,U57C A89G U130C,0.86
5,U57C A90G U103C,0.26
6,U57C A90G U130C,1.02
7,U57C A94G G106A A114U,0
8,U57C A95G U103C U120C,0.41
9,U57C A96G A111G U124A U130C,0.01
10,U57C A96G U100C A114G,1.05
11,U57C A116G A118U A129U G138A,0.09
12,U57C A118G U122C,1.47
13,U57C C61U A66G A92G,0.18
14,U57C C76U A111G,0.02
15,U57C G73A A78U A90G A125G U131C,0
16,U57C G83U U97C A114G U122C U132C,0.01
17,U57C G84U U97C A114G U120C,0.01
18,U57C U70A A82G A92G,0.18
19,U57C U70C A117G U130C,0.71
20,U57C U72C G75C,0.17
21,U57C U87C A92U,2.04
22,U57C U87C A125G,0.21
23,U57C U100C U103C,2.2
24,U57C U120C A140C,0.75

row,Variant,self-cleavage
1,U57G A91G C109A,0.23
2,U57G A95C U97A A110G,0.17
3,G58A A59C A60G,0.86
4,G58A A66G A118G,0.99
5,G58A A78G A117U,0.08
6,G58A A90G A95G A110G,0.1
7,G58A C85U U102A U130C,0.34
8,G58A U120C A126G,0.78
9,G58U U87C A94U C112U,0.02
10,A59C A67G U120C U122G,2.68
11,A59C A69G A86G A118U U122C U132C A135G,0.16
12,A59C A90G A118G,0.57
13,A59G A60C U70C A95G,0.91
14,A59G A60G A69G U72A A92U,0.28
15,A59G A60G A78G,0.34
16,A59G A60G A78U U122C,0.42
17,A59G A60G C61U,0.84
18,A59G A62G A66G A135G,1.47
19,A59G A62G A68G A78G A90G,0.26
20,A59G A62G A91U,1.5
21,A59G A62G U124G,0.98
22,A59G A63G A111G,0.04
23,A59G A63G U70C A111G,0
24,A59G A63G U102C,1.4

row,Variant,self-cleavage
1,A59G A63U A82U A110C,0.07
2,A59G A63U C101U,0.43
3,A59G A64G A92G,1.33
4,A59G A64G A94G,1.78
5,A59G A64G A110G,0.2
6,A59G A64G U70C A129G,1.05
7,A59G A64G U122A,0.55
8,A59G A66G A110U,0.99
9,A59G A66U A96U A135G,0.82
10,A59G A67G A89U U108C,0.02
11,A59G A67G U103C A114U,0.03
12,A59G A68G A94U G115A U122C,0.04
13,A59G A68G G75A A78G,0.17
14,A59G A78U U87C U102C U108C,0.01
15,A59G A82G A126U,0.44
16,A59G A82U A116U,0.05
17,A59G A86C A92G U103C,0.45
18,A59G A86G G104A A125U,0.03
19,A59G A86U U87A,2.9
20,A59G A89G A116U,0.35
21,A59G A89G A118G,1.57
22,A59G A91G U127C,0.75
23,A59G A92G A98G,0.49
24,A59G A92G A125G,0.75

row,Variant,self-cleavage
1,A59G A95G A117U U120A U131C U139C,1.81
2,A59G A95G U122C U132C,1.3
3,A59G A96G A111G U122G,0.01
4,A59G A96G U103C A129G,0.99
5,A59G A114G U122A,0.22
6,A59G A114G U139C,0.09
7,A59G A117G G119A,2.97
8,A59G A118G U120C U131G,0.27
9,A59G A118G U131C,0.86
10,A59G C85U A114G,0.14
11,A59G C88A U100C A111G,0.01
12,A59G G74A U87C,0.4
13,A59G G74U A114C,0.06
14,A59G G83A G106A,0.02
15,A59G G93U A129G,1.72
16,A59G G106C C109A,0
17,A59G U70A U87C A129G,0.16
18,A59G U70C A82U A96U,0.26
19,A59G U70C G74A,0.24
20,A59G U70C U131G,0.37
21,A59G U72A G93U A96G,0.36
22,A59G U72C A91G A114G,1.06
23,A59G U72C G138A,0.17
24,A59G U87A A98G A129G,0.42

row,Variant,self-cleavage
1,A59G U87A A111G U139A,0.01
2,A59G U100C A110G,0.26
3,A59G U100C A116G,1.84
4,A59G U102C A116G,0.98
5,A59G U102C A118G,0.72
6,A59G U103A U130C,0.72
7,A59G U108C A125G,0.02
8,A59G U108C A126U,0.04
9,A59G U120A U130C,1.38
10,A59G U130C U132C,0.84
11,A59U A62G U87G,0.55
12,A59U A66C A95G C128U,0.93
13,A59U A66G U102C,1.93
14,A59U A67G A68G,0.46
15,A59U A68G U87C A98G A110U,0.73
16,A59U A68G U100C U139C,2.05
17,A59U A69U A111G,0.05
18,A59U A78U U87A A116G,0.03
19,A59U A82G U132A,0
20,A59U A82U G115U,0.03
21,A59U A89C A116G,0.4
22,A59U A91G A110G,0.09
23,A59U A98U A118G,0.58
24,A59U C81U A110U,0.06

row,Variant,self-cleavage
1,A59U C109U A117G U132C,0.58
2,A59U U72A A90G U122A,0.13
3,A59U U72C A117G,0.24
4,A59U U72C C88U,0.4
5,A59U U87C U102C,1.14
6,A59U U97C A116U,0.04
7,A59U U122C A126G,1.44
8,A60C A78G A125U,0.31
9,A60C A82G U87A A126G,0.31
10,A60C A91G U102C U103C A117G,0.23
11,A60C G75A A129U,0.07
12,A60C U102A U133A,1.16
13,A60G A62G A90G U127C,0.12
14,A60G A62G A92G,0.39
15,A60G A62G U70C,0.12
16,A60G A62G U108A,0.02
17,A60G A62G U108A A110G,0.01
18,A60G A62U A82C U120C U130C A135G,0.05
19,A60G A63G A110G,0.16
20,A60G A63G U100C A114G,0.72
21,A60G A63U A64G A68C A69G A78U,0.35
22,A60G A64G A66G,1.02
23,A60G A64G A78G U102A,0.13

# Source: the RNAGym collection of RNA variant scans (doi:10.7554/elife.90254)
